Data from PubChem BioAssay AID1745845 (National Center for Advancing Translational Sciences (NCATS), 2022).
Values joined by “and” are separate entries in the source; they are usually repeats but may differ in a detail not shown here. Identical values can stand only once. Out of some 360,000 compounds screened, about 2,600 (0.72%) were called active. The inconclusive results got no clear call from the source; some entries with a clear call stand among them for comparison. The call rests on the fitted dose curve; in most records, active means well fitted inhibition curve with a large enough effect; inconclusive means small, poorly fitted or top-dose-only effect; inactive means no such curve, though single readings can be large or run the other way. Where the call is inconclusive, the potency comes from a doubtful curve fit.

assay: Primary qHTS for Inhibitors of ATXN expression; conditions: HEK-293 ATXN2-luciferase reporter, luminescence, 24 h; activity change, negative = inhibition: at 57 µM (top of the series); further: nearly all actives have a fitted effect of over 55% in size
Procedure, shortened: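 qHTS (up to 57 uM final) was run with 24 h compound exposure of reporter cells at 37 °C. Each well was multiplexed: SteadyGlo luminescence measured ATXN2-luciferase expression after a fluorogenic Gly-Phe-AFC viability readout (25 uM final).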
On the % scale 0 is the no-effect control and ±100 the full control effect; potency means the concentration at half of the fitted maximal effect; tags describe the fitted curve by direction and shape.

Activity change, negative = inhibition, inactive:
COc1ccc(NC(=O)N(C)C[C@H]2Oc3c(NC(=O)c4ccncc4)cccc3C(=O)N([C@H](C)CO)C[C@@H]2C)cc1 -3.36%, COC(=O)N/N=C/c1ccccc1OCc1ccccc1 5.61%, N=C(SC1CC(=O)N(c2ccc(F)cc2)C1=O)N1N=C(c2ccccc2)CC1c1ccccc1 (configuration not stated) -13.3%, O=C(Nc1ccc(-c2nnc3n2CCCCC3)cc1)c1ccco1 1.23%, O=C(Nc1cccc(Oc2ccccc2)c1)C1Cc2c(-c3ccc4c(c3)OCO4)ccnc2O1 (configuration not stated) 9.81%, O=C(N/N=C/c1cccc([N+](=O)[O-])c1)c1cnccn1 13.5%, COc1cc2c(cc1OC)C(c1ccc(F)cc1)N(c1ccccc1)C(=O)C2 (configuration not stated) -4.4%, Cc1c(C(=O)NCc2ccc(Cl)c(Cl)c2)sc(=O)n1Cc1ccc(S(=O)(=O)N(C)C)cc1 -20.3%, COc1ccc(Cl)cc1Cn1c(C)c(C(=O)NCc2ccc(F)cc2)sc1=O -37.6%, CCOc1ccc(NC(=O)CN2C(=O)NC(C)(c3ccc(OC(F)F)cc3)C2=O)cc1 (configuration not stated) 6.94%, CC(C)C[C@H]1CNC(=S)N1CC1CCN(CC2CCCC2)CC1 0.899%, CCC(C)[C@H]1CNC(=O)C(=O)N1CC(C)(C)C (some centres not stated) 4.89%, Cc1cc(C(=O)OCC(=O)Nc2ccccc2C#N)c(C)o1 8.7%, O=C(NCCN1C(=O)S/C(=C\c2ccc(Cl)c(Cl)c2)C1=O)c1cnccn1 1.76%, CCOc1ccc(NC(c2ccc(Cl)cc2)c2nnc(-c3cccc(F)c3)o2)cc1 (configuration not stated) 7.02%

Potency, active:
CN(C)CCn1c2ccccc2c2nc3ccc([N+](=O)[O-])cc3cc21 3.16 µM, O=C(CSc1n[nH]c(-c2ccccn2)n1)Nc1ccc(Cl)cc1 20 µM, COC(=O)c1ccc(C(=O)OC)c(NC(=O)CSc2cccc[n+]2[O-])c1 1 µM, COc1cccc(CNCCc2c[nH]c3ccccc23)c1OCc1ccccc1F 20 µM

Potency, inconclusive:
COC(=O)[C@@H]1Cc2c([nH]c3ccccc23)C(C)(C)N1C(=O)CCl 31.6 µM [inhibitor, single point], CCOC(=O)C[C@@H](C#N)NC(=O)[C@@H]1CCCN1C(=O)[C@@H](NC(=O)c1ccc(N)c(Cl)c1)C(C)(C)C 11.2 µM [inhibitor, partial curve, poor fit], Cc1nc2ccc(C(=O)OCc3nnc(-c4ccc(Br)cc4)o3)cc2nc1C 31.6 µM [inhibitor, partial curve, poor fit], COc1ccccc1CNC(=O)Nc1nc(C(N)Cc2ccc(Cl)cc2)cs1 (configuration not stated) 35.5 µM [inhibitor, single point], Cc1ccc(NC(=O)CCn2nc(-c3ccccc3)c3ccccc3c2=O)c(C)c1 11.2 µM [inhibitor, partial curve, poor fit], Cc1cc(C)c2nc(N(CCCN(C)C)C(=O)c3ccc4c(c3)CCCC4)sc2c1 17.8 µM [inhibitor, partial curve], CCc1ccc(C2=C(C)C(N3CCC(C(=O)Nc4ccc(F)cc4)CC3)=NS2(=O)=O)cc1 28.2 µM [inhibitor, partial curve, poor fit], O=C(NNC(=O)c1ccccc1O)c1ccc(NS(=O)(=O)c2ccc(F)cc2)cc1 35.5 µM [inhibitor, single point], CCc1nc(N)nc(N)c1-c1ccc(Cl)cc1 25.1 µM [inhibitor, partial curve, poor fit] and 43.2 µM [inhibitor, single point] and 39.8 µM [inhibitor, single point], CCN(C(=O)CSc1nc(-c2ccccc2)no1)c1cccc(C)c1 2.82 µM [inhibitor, full curve], O=C1c2ccccc2C2=Nc3ccccc3SC(c3cccc(F)c3)C12 (configuration not stated) 39.8 µM [inhibitor, single point], CN(CC(=O)Nc1ccc(S(=O)(=O)N2CCCC2)cc1)Cc1c(F)cccc1Cl 37.7 µM [inhibitor, partial curve, poor fit], O=C(NCC1CC1)c1cc2c(c(-c3cccc(-c4ccccc4F)c3)n1)[C@@H](CCO)N(C(=O)CC1CC1)C2 39.8 µM [inhibitor, single point], COc1ccc(C[C@H]2CN3C(=NC[C@@H]3Cc3ccc(O)cc3)N2C[C@H](C)NC(=O)CCC2CCCCC2)cc1 39.8 µM [inhibitor, single point], Clc1ccc2c(N/N=C/c3cccc(Br)c3)ccnc2c1 39.8 µM [inhibitor, single point], COc1ccc(/C(N)=N/OC(=O)c2ccc(OC)c([N+](=O)[O-])c2)cc1OC 10.6 µM [inhibitor, partial curve, poor fit], C/C(=N\NC(=O)CN1CCCCC1)c1ccccc1O 25.1 µM [inhibitor, single point], CCCCn1c(N)c(N(CC(C)C)C(=O)c2cc(Br)c(Br)s2)c(=O)[nH]c1=O 20 µM [inhibitor, single point], CCn1c2ccc(F)cc2c2nnc(NN)nc21 28.2 µM [inhibitor, single point], Cc1cc(=O)c2ccccc2n1Cc1ccccc1 20 µM [inhibitor, partial curve, poor fit], C[C@H](CO)N1C[C@H](C)[C@@H](CN(C)Cc2ccc(Cl)c(Cl)c2)OCCCC[C@H](C)Oc2ccc(NC(=O)CCC(F)(F)F)cc2C1=O 35.5 µM [inhibitor, single point], Nc1c(S(=O)(=O)c2ccccc2)c2nc3ccccc3nc2n1/N=C/c1cccc(O)c1 39.8 µM [inhibitor, single point], C/C(=N\NC(=O)c1cc2ccccc2cc1O)c1ccccn1 6.31 µM [inhibitor, single point]
